Measurements: the supplement of paper PMC3334620
In all, about 33,000 sequences were measured (“E-score (-0.5 to 0.5)”: median about -0.012, highest 2% from about 0.27 on). Some of the results follow.

biological target: T1, Vhr1 (UniProt P40522); test: PBM E-score (8-mer binding enrichment) (E-score (-0.5 to 0.5)); higher = stronger / more preferred TF binding; most listed sequences are background and not binding sites; conditions: protein concentration: 200 nM; construct: GST-full length
T1 sequence: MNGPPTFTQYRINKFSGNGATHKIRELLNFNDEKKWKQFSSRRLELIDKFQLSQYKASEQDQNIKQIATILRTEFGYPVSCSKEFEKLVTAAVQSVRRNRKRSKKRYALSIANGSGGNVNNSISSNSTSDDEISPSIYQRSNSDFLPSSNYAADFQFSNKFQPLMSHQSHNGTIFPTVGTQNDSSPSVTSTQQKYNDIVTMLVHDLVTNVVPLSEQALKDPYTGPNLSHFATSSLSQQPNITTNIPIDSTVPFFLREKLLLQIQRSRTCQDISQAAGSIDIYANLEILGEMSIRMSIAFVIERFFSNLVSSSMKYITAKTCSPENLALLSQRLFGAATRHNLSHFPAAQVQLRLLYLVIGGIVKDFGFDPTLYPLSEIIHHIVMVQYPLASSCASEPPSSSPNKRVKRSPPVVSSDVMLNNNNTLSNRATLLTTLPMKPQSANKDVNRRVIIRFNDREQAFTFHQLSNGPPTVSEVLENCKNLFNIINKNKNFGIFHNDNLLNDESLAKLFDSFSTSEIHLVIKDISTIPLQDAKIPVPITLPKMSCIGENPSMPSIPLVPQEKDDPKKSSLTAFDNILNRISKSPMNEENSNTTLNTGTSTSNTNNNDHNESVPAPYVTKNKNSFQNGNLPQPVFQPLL
Summary of the method: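 Universal all-10-mer Agilent arrays, double-stranded by primer extension on fresh or once-stripped slides, were probed with about 100-200 nM GST-tagged yeast transcription factors made by PURExpress. Fluorescent anti-GST detected bound protein, and masliner normalised the scans. E-scores from the Universal PBM Analysis Suite were given to each ungapped eight-base word pooled with its reverse complement.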

Sequence	PBM E-score
ACCCTACC	0.00399
AATGACGC	0.00169
GACGCGCA	-0.022
ATCGAGAG	0.00887
AGTGAGCA	-0.0161
CGACGCGC	0.0597
CGAACCGC	0.21
TATCATAA	0.167
AGGGGTAA	-0.232
AACACCGG	0.108
CGAGGCGC	0.0696
AACCGGGG	-0.0802
CACTGTCG	-0.0238
GGCCAGCC	0.0442
ACAAGCTC	0.0656
CGAAGGAC	-0.232
ATTTATTA	0.111
TTTGAAAA	-0.184
AATCAGAA	0.223
ATCTCCAT	0.0116
AATTTGAG	-0.154
GGACTGAC	0.0874
ACTATTTC	-0.0701
ACCCCCCG	-0.0758
GACTAGTA	0.263

Sequence	PBM E-score
CCACTGAC	0.00788
CCGTTTCG	-0.151
ACAGTTCG	0.0767
AATTCGAC	-0.323
CGCACCGA	0.143
GATATCAC	0.0619
CGTTGCAC	-0.0642
TGGACAAA	-0.143
CCTAGTCC	-0.0886
TCTGTACA	0.0644
AGATCTGA	0.107
CGATTTTC	0.00282
ACGCGTCG	0.0343
CGCGTGTA	0.14
TCCTTCAA	-0.131
ACGATGTG	0.216
TCCATCCA	0.00064
AGCTACGA	-0.0745
CATTCTCC	-0.124
AAGGCGGG	0.0231
CTCAGCCC	-0.0469
GTCGCTCA	-0.0251
GATCAGGA	-0.00962
GATAGATA	0.0849
AAGATGGT	-0.049

Sequence	PBM E-score
ACAGGACT	0.046
CGAATTGA	-0.187
GATTGCAC	0.0661
CTCCACCC	0.163
TGTGAAAA	-0.194
ACATATAG	0.11
AAGGAACT	-0.158
AGTATTGA	0.171
CCTCTGCG	-0.126
AAACGACA	0.138
ACGTAAAG	-0.194
GAAGCAGC	-0.15
AGGTAGCC	-0.102
CATCGGCC	-0.126
CATATTGC	0.0133
ACAGCCTG	-0.149
CGGCACAC	0.2
CATGATGG	0.139
GGTAGCAA	-0.213
AGTTAGAC	-0.0147
ATAGATCA	0.101
CTGGCAAC	-0.142
AGTCAGAA	0.18
TATCTAGA	-0.0402
ATTGTTGA	0.0702

Sequence	PBM E-score
AAGTAGTG	0.00973
ATAACACA	0.237
ATGCAAGC	-0.0788
CCGGATGC	-0.134
AAGGAGAA	-0.0752
ATACTCTG	0.00605
ATAGTTGA	0.0409
ACCCAACA	0.0667
CTTGATTC	0.214
ACGAAGAG	-0.0471
AGAGCTAA	-0.17
ACGCTACT	0.0842
ATTTATAA	0.075
CAGGCAGC	-0.142
AGATCATC	-0.12
ATCTAATC	0.0096
CTTGAGTA	0.0408
ACAGAAGG	-0.108
CTAGTAAG	-0.199
AGTAACAC	0.0963
CTCGGGAA	0.116
CTAGCGCA	-0.0626
CCAGACTA	0.145
TACATGTA	0.0887
CCCCCCAC	-0.288

Sequence	PBM E-score
CCAATTAG	0.125
ATGGGACC	-0.0308
CAGGGAGC	-0.0332
CATAACTA	0.118
GAGGAGAA	-0.299
CGGGTACG	-0.0468
CTTAGCCA	0.164
CTCAGTGC	0.0631
CAGAGCTA	-0.21
AAAAGATT	-0.224
CGCACAAG	-0.0473
GGTGCCTA	-0.145
CAATACAA	0.187
CACATTTC	0.0771
CCTAGGAG	-0.0958
ATCGGAAG	-0.0183
TAATAGTA	0.105
GGGCGGAA	0.0255
AACGGACT	-0.348
ACGGCACA	0.0246
ACATCCAA	0.133
GTCCTCCA	0.0132
GTTTATTA	0.255
CCCTAAAA	-0.219
GTCGGCCA	-0.101

Sequence	PBM E-score
ACCAAGCG	0.032
CCGATCAA	-0.0603
GGATGAAC	-0.0744
AAGGCGAG	-0.0946
GTTGAAAA	-0.19
ATGGCCAC	-0.164
TAAGAGGA	-0.121
ATGAAAAT	-0.0304
CAGTTCAG	-0.0035
AAAATTAC	-0.0551
CTGTAAGA	-0.186
CCGTCTAA	-0.138
AGTGACTA	0.367
ACAGATGC	-0.229
CGACTGCA	0.144
AACCGACT	0.0478
AACAAACC	0.0727
CGCCGCGA	0.257
GTTAACTA	0.11
CGTCCCAA	-0.0198
CTCACCCC	0.318
CATCTCCC	-0.0736
AGGCCATG	0.0507
GCAAAAAC	-0.156
CTCAAGAC	-0.0966

Sequence	PBM E-score
ACCTATAG	-0.144
TCAGTAAA	0.152
CCTCATAC	-0.119
CGACGTAC	0.0727
CGTAGACG	-0.192
AACAACTC	-0.0423
CGCCCTAC	-0.116
GCGTGTAA	-0.0131
ACGGTCCG	-0.0765
GGGCACAA	0.0396
GTCGAAGA	-0.0328
CGTGCAAA	-0.162
GGCAAACA	0.0023
CCAGATCC	-0.0801
ATATGAGA	0.0143
CCCATTAG	-0.245
ACTAATTG	0.179
ACGTCGAG	-0.0236
GAACGTGC	-0.154
GAGAGTGC	-0.301
ACCGTGTA	0.15
CAATCCAC	0.117
TAAGCTGA	0.00653
AACCGGTA	-0.148
TAACCTAA	-0.187

Sequence	PBM E-score
CTGAAGAA	-0.18
CTCACCAC	0.0405
GAATTGGC	-0.176
ATAAACAT	-0.00214
GTATGCAA	0.141
CTCTAGAA	-0.101
GGGAGAGA	-0.214
AGCTTTAG	-0.192
CCTTGGGC	-0.158
TCATATAA	-0.0246
TAAATTCA	-0.0546
CCACCAGA	0.201
GTACATCA	0.266
ATCGAATA	0.00408
AGCTGCCT	-0.219
ACTAATGC	0.143
AAGAACTG	-0.0594
ACGCCGTC	-0.0654
TGTGGGAA	-0.109
CCGACCTC	-0.0746
CTCAGACA	-0.00101
AATCATTG	0.283
AGCCTGAT	-0.166
GGCGTCGA	0.133
ATACGCAC	0.0952

Sequence	PBM E-score
ATCGTCCA	-0.0611
GAGAAGGA	-0.134
CACTATAG	0.0647
GCTACATA	0.0513
CCACGACC	0.0103
AGCTACTC	0.00066
AAAATGGG	-0.244
CACATTAC	0.11
AGCTCGGC	-0.0942
AGCCACTA	0.014
CGGTCATC	0.124
GGATTTAC	-0.239
CCCCACGG	-0.0732
GAATCTCA	-0.0491
CTCAGATC	0.11
GAAGGTAA	0.00895
ACGTGCGG	-0.0456
CTCTTCTA	-0.137
ATATCCTA	0.109
